Measurements taken from PubChem BioAssay AID485281 (National Center for Advancing Translational Sciences (NCATS), 2010).
Screen size: about 350,000 compounds; about 260 (0.074%) were called active. The inconclusive results got no clear call from the source; some entries with a clear call stand among them for comparison. Calls come from the whole dose curve; as a rule, active = well fitted inhibition curve with a large enough effect; inconclusive = small, poorly fitted or top-dose-only effect; inactive = no such curve, though single readings can be large or run the other way. Where the call is inconclusive, the potency comes from a doubtful curve fit.

Each molecule was assayed against Ferritin light chain (Equus caballus) (UniProt P02791) (assay: qHTS Assay for Identification of Novel General Anesthetics). Conditions: apoferritin/1-aminoanthracene competitive binding, fluorescence; activity change, negative = displacement: at 77.5 µM (top of the series).
UniProt P02791, sequence (P02791 whole entry, looked up): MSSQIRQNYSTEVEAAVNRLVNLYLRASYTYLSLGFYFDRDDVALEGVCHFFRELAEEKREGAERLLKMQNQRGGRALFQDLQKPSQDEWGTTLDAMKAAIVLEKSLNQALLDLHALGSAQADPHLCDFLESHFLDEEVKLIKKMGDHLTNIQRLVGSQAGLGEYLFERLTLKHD
Method in brief: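 In PBS, apoferritin at 10 uM is loaded with 1-AMA from a 50% saturated solution. After 10 min of compound exposure at ambient temperature, reduced 535 nm fluorescence indicates probe displacement.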
% is set by controls: 0 for no effect and ±100 for the full control effect; potency is the fitted concentration of half-maximal effect; tags give direction and shape of the fitted curve.
Note: nearly all actives have a fitted effect of over 20% in size.

Row | Structure (SMILES) | activity change, negative = displacement | Potency
1 | Cc1ccc(-c2noc(CSc3ccccc3)n2)cc1 | inactive: -21.2% | 
2 | N#CC(=C1CCCC1)c1nc(-c2ccccc2O)cs1 |  | inconclusive: 20 µM [inhibitor, partial curve]
3 | CCOc1ccccc1NC(=O)CN1C(=O)CC(c2ccco2)Sc2ccccc21 (stereo not given) | inactive: 1.46% | 
4 | COc1ccc(N=C2SC(C(=O)Nc3ccc(F)cc3)CC(=O)N2C)cc1 (stereo not given) |  | inconclusive: 31.6 µM [inhibitor, partial curve]
5 | Cc1cc(C)cc(NC(=S)N(Cc2ccc(Br)cc2)Cc2ccc(C(=O)O)cc2)c1 | inactive: -10.6% | 
6 | COC(=O)C1=C(N)c2c(F)cccc2C1(C#N)c1ccccc1 (stereo not given) |  | inconclusive: 31.6 µM [inhibitor, partial curve, poor fit]
7 | COc1ccc(CNC(=O)C(c2ccncc2)N(C(=O)Cc2cccs2)c2cccc(C)c2)cc1 (stereo not given) |  | inconclusive: 31.6 µM [inhibitor, partial curve]
8 | COc1cccc(CNC(=O)CCC2CCCN(C(=O)CCn3cncn3)C2)c1 (stereo not given) | inactive: -2.16% | 
9 | COc1ccc(C(=O)N/N=C/c2cc3ccccc3[nH]c2=S)cc1 |  | inconclusive: 12.6 µM [inhibitor, partial curve]
10 | O=C(NCCc1ccccn1)C(F)(F)C(F)(F)C(F)(F)C(F)(F)C(F)(F)C(F)F |  | inconclusive: 25.1 µM [inhibitor, single point]
11 | Cc1ccc(C(OC(=O)c2ccco2)C(=O)NCc2cccs2)cc1 (stereo not given) |  | inconclusive: 39.8 µM [inhibitor, single point]
12 | C(=C\c1ccccn1)/c1ccncc1 | inactive: 1.04% | 
13 | Cc1ccccc1NC(=S)NNC(=O)c1csc2c1CCC(C)C2 (stereo not given) |  | inconclusive: 39.8 µM [inhibitor, partial curve]
14 | O=C1Nc2cc(Cl)c(Cl)cc2N(O)N1c1ccc(Cl)c(Cl)c1 |  | inconclusive: 25.1 µM [inhibitor, partial curve]
15 | CCCC(C)C(=O)Nc1ccc(F)c(Cl)c1 (stereo not given) |  | inconclusive: 14.1 µM [inhibitor, partial curve]
16 | CCNc1ccc(S(=O)(=O)N(C)C)cc1NCC(=O)Nc1ccccc1Cl |  | inconclusive: 39.8 µM [inhibitor, single point]
17 | Cc1cc(OCC(=O)N2CCc3ccccc3C2)c2c(-c3ccccc3)cc(=O)oc2c1 |  | inconclusive: 17.8 µM [inhibitor, partial curve]
18 | COC(=O)c1ccc(NC(=O)CSCc2ccccc2)cc1 |  | inconclusive: 31.6 µM [inhibitor, partial curve, poor fit]
19 | CCOC(=O)N/N=C/C(Cl)=C/c1ccccc1 | inactive: -12.8% | 
20 | COC(=O)c1cc(COC(=O)COc2ccc(C)c(C)c2)oc1C |  | inconclusive: 25.1 µM [inhibitor, single point]
21 | CCOc1ccc(N2C(=O)S/C(=C\c3cccn3C)C2=O)cc1 | inactive: -8.44% | 
22 | O=C(NCc1ccc(F)cc1)C(c1cccs1)N(C(=O)c1csnn1)C1CC1 (stereo not given) |  | inconclusive: 31.6 µM [inhibitor, partial curve]
23 | CCOP(=O)(CC(C(C)=O)C(O)c1ccccc1)OCC (stereo not given) |  | inactive

Row | Structure (SMILES) | activity change, negative = displacement | Potency
24 | Cc1ccc2nc(C3CCCCC3)[nH]c2c1 |  | inconclusive: 50.1 µM [inhibitor, single point]
25 | COc1ccc(-n2nc([N+](=O)[O-])c(=NCCC3=CCCCC3)n2O)cc1 |  | inconclusive: 31.6 µM [inhibitor, partial curve]
26 | CN(C)NC(=S)NC(=O)C12CC3CC(CC(C3)C1)C2 |  | inconclusive: 14.1 µM [inhibitor, partial curve]
27 | CCOc1cc(C=C(C#N)C#N)ccc1Oc1ccc([N+](=O)[O-])cn1 | inactive: -21.7% | 
28 | Cc1ccc(SCc2[nH]nc3c2C(c2ccc(C)o2)C(C#N)=C(N)O3)cc1 (stereo not given) |  | inconclusive: 35.5 µM [inhibitor, partial curve]
29 | Nc1nc(-c2cccs2)cs1 |  | inconclusive: 28.2 µM [inhibitor, partial curve]
30 | S=C(Nc1ccc(CN2CCCCC2)cc1)Nc1cccc(Cl)c1Cl |  | inconclusive: 28.2 µM [inhibitor, partial curve]
31 | CC12CC3CC(C)(C1)CC(C(=O)Nc1nncs1)(C3)C2 |  | inconclusive: 28.2 µM [inhibitor, single point]
32 | O=C(NC1CCCCC1)C(c1cccnc1)N(C(=O)CCl)c1cccc(Cl)c1 (stereo not given) | inactive: -23.4% | 
33 | O=C(c1ccc(F)cc1)N1CCN(c2ccc([N+](=O)[O-])c(N3CCCCC3)c2)CC1 |  | inconclusive: 39.8 µM [inhibitor, partial curve]
34 | COc1cc(C2C(C(=O)c3cc4ccccc4o3)=C(O)C(=O)N2CCN2CCOCC2)ccc1OCCC(C)C (stereo not given) |  | inconclusive: 39.8 µM [inhibitor, single point]
35 | Cc1ccc(Nc2cc(=O)n(C3CCCCC3)c(=O)[nH]2)cc1C |  | inconclusive: 25.1 µM [inhibitor, partial curve]
36 | CCN(CC)S(=O)(=O)c1ccc(N/N=C/c2cccnc2)nc1 | inactive: -7.42% | 
37 | Cc1ccc(-c2onc(C)c2C)cc1S(=O)(=O)NCc1ccco1 |  | inconclusive: 14.1 µM [inhibitor, partial curve]
38 | Cc1ccc(C)c(S(=O)(=O)N2C(=S)NC(=O)C2CC(C)C)c1 (stereo not given) | inactive: -8.04% | 
39 | CCCc1ccc(Oc2cc(C)nc(N3CCOCC3)n2)cc1 | inactive: -8.5% | 
40 | O=C(COc1ccc(Cl)c(Cl)c1)NN1C(=O)C2C(C1=O)C1C=CC2C12CC2 (stereo not given) |  | inconclusive: 39.8 µM [inhibitor, single point]
41 | O=C(Cc1cccc2ccccc12)NN1C(=O)C2C(C1=O)C1C=CC2C12CC2 (stereo not given) |  | inconclusive: 39.8 µM [inhibitor, single point]
42 | O=C1SC(SCc2ccccc2)=N/C1=C\c1ccco1 |  | inconclusive: 35.5 µM [inhibitor, partial curve]
43 | C#CCSc1nsc(SCC#C)c1C#N |  | inconclusive: 22.4 µM [inhibitor, partial curve]
44 | Cc1ccc([N+](=O)[O-])cc1NC(=S)NC(=O)C(C)(C)C |  | inconclusive: 35.5 µM [inhibitor, partial curve]
45 | CC1CCN(C(=O)COC(=O)[C@H](C)NS(=O)(=O)/C=C/c2ccccc2)CC1 |  | inconclusive: 31.6 µM [inhibitor, partial curve]
